The supplement of paper PMC3334620
The full ranking holds about 33,000 sequences; the median of “E-score (-0.5 to 0.5)” is about -0.054, and the highest 2% start at about 0.39. The list shows a part of the results.

target: Ylr278c (UniProt Q05854); test: PBM E-score (8-mer binding enrichment) (E-score (-0.5 to 0.5)); higher = stronger / more preferred TF binding; most listed sequences are background and not binding sites; conditions: protein concentration: 200 nM; construct: GST-DNA-binding domain
Method in brief: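 PURExpress in vitro transcription/translation supplied GST-tagged yeast transcription factors, either full-length or DNA-binding domain. Applied at about 100-200 nM to universal all-10-mer Agilent arrays double-stranded by primer extension, the bound protein was detected with fluorescent anti-GST. E-scores, modified Wilcoxon-Mann-Whitney statistics, were given by the Universal PBM Analysis Suite to ungapped eight-base words pooled with their reverse complements after masliner normalisation.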

Sequence | PBM E-score
ACCCTTGG | -0.218
TGCAGGCA | -0.105
CGCATAAC | -0.0515
ATTACGTC | 0.00763
AACTTGCT | -0.0383
TATTCCGA | 0.453
ACCTGGAG | -0.128
TACTGCAA | -0.152
CGAAACAC | 0.102
GACTTCCC | 0.084
GCTCGACA | -0.357
CAGGCCTC | -0.224
CACGATTC | 0.0252
AACAAGGC | -0.26
CGCCAAAC | 0.0632
GAACCTAA | -0.00783
GGAGGGAA | 0.152
CAGACAGG | -0.188
GGCGATCA | -0.0139
CCTATACC | -0.0484
AGATTGGA | -0.117
GAAGATGC | -0.0458
AATACAAA | 0.172
ACGCGGTG | 0.131
CCGATATC | 0.349

Sequence | PBM E-score
AAGGGCTG | -0.213
AATTGCCA | -0.115
ATTGTCCG | 0.452
CCATAGCG | -0.0972
AACACCTC | -0.251
CGCATCGA | 0.00676
TATCACCA | -0.0632
AGCCAGCT | -0.102
GGTACAAA | -0.166
CTCGATGA | -0.12
CTCGCCCA | -0.205
TAAAGCAA | -0.0064
CATTGCAA | -0.12
AATGCCGT | 0.381
AGGACGAA | 0.168
CATGAGCC | -0.173
AATCACTA | -0.08
ATTGGGGA | -0.104
CGCAGTAG | 0.072
AGCCTTCA | -0.16
CTAGTGAC | -0.187
TGCAGCCA | -0.122
GTCAGAGA | -0.24
TTATGGAA | -0.0616
ATGCAAAC | -0.0897

Sequence | PBM E-score
ATTGACGA | -0.135
CAGCCTGA | -0.225
CCCATAAA | 0.0458
ACTTTTAC | 0.181
AGCACGGC | 0.182
ACAGGAGT | -0.0336
GAGTCCCC | -0.104
ATCCAATC | -0.0193
ACTTAGAA | -0.128
TACGCTGA | 0.0224
AGAAATAA | 0.0262
AATGGTGA | -0.157
GCCATAGA | -0.271
CGGCGAAA | 0.381
AATCTTAA | -0.301
CGGGCTGA | 0.111
AGACTTAA | -0.264
CGCCTGTA | 0.0202
ATCCGGAG | 0.486
AAACAATG | -0.226
AATAAATG | 0.0298
GTGGGCTA | -0.111
AGAAGTCG | -0.0267
CATGTCTA | -0.322
ACATGCAT | -0.148

Sequence | PBM E-score
CCCACCGG | 0.41
GTGGATGA | -0.244
CGTAGGAG | 0.0338
ACTGGTCC | 0.0527
CACGTCAG | -0.229
ATAACTAA | -0.132
ATGTTTAC | -0.0405
AAACCTTG | -0.277
TCCATCAA | 0.0618
GGAGGTGA | 0.201
GATGCTTA | -0.0379
AGTCAACC | -0.0996
GGCTGCAC | -0.0358
GGCATTAA | 0.0355
AAGTATCT | -0.129
GCGCAGAA | 0.036
CGCTCAAC | 0.0166
ACATTCGA | 0.0919
ATAATAAT | -0.0152
AGCAGGAT | -0.079
ACCCCCGC | 0.266
GAACAGAC | -0.0318
GTTGGGAA | -0.0423
GGGATATA | 0.151
AGCCGGGC | 0.167

Sequence | PBM E-score
GAGCAGGC | -0.156
AGCCCCGA | 0.258
ATCATAAG | -0.0257
TAGGCCAA | -0.0188
GTGGGTAA | -0.082
ACTGAAGT | -0.136
GACAGGCA | -0.147
ATTCGATC | 0.12
AAAGTATT | -0.0984
CGGTGTAA | 0.254
CACGCGCC | 0.172
GGTATAGA | -0.0727
CCTGGATC | -0.238
ATCTTCTC | 0.223
CTGCGCAG | -0.0934
CTCACGCA | -0.0469
CCATGCCC | 0.0194
ACTTGTTA | -0.0563
ACCCGCAA | -0.0209
CGAACCTA | 0.132
ATTATAAC | 0.0111
CTGGGCCA | -0.288
ATGCCAAC | -0.188
CAACGATA | -0.046
AAATCTAG | -0.178

Sequence | PBM E-score
GCGACTGA | -0.207
GTGTTAGA | -0.129
AGGAGTCG | -0.167
CAGCACAG | -0.164
AGATCCGC | 0.37
GCTGGCAA | 0.00941
ATTAGTGC | 0.131
TCAGGCGA | -0.171
CACAGCGG | 0.0351
AATAGGGA | 0.0154
GAACAATA | 0.0307
ATTCCGTG | 0.361
ACTATCTA | -0.0969
CAGAAGAG | -0.316
CCGTCGCG | 0.256
AAATTTGT | -0.026
AGGAAGAT | 0.0761
GAGAAGAC | 0.0429
GGTGTTTA | 0.198
CCGAGAGG | 0.0757
GTTCGGGA | 0.277
GAGCAAGA | 0.0283
CAGCCTCG | -0.251
CCTGCCCG | 0.0809
AGAATGTG | -0.285

Sequence | PBM E-score
GTGAGATA | 0.052
AGACTAAA | 0.0368
CACGCCAG | -0.159
ATCCGAGC | 0.266
CCACGAAG | -0.297
CTTTACCA | -0.185
CCGTGCCG | 0.199
CGTACAAA | -0.149
GAACCTGC | -0.0346
AAGCCGTC | 0.235
ACTGTCAT | -0.191
AGATTTAC | 0.0367
AAACAGGC | -0.103
GGAGAGAA | 0.148
AAGAACAA | 0.0618
ATGGTACC | -0.105
CTTCGATC | -0.0803
TGCACACA | -0.237
CACAACGG | 0.067
CATGGCCG | 0.224
ATGGAAGG | -0.213
GATCCGTA | 0.158
